In the supplement of paper PMC12217912:
This is one part of the list. The full chains were built here from the parent and the listed change. Values near 0.05 are background.

B1: TEV protease; numbered along this chain (parent)
chain: MGESLFKGPRDYNPISSSICHLTNESDGHTTSLYGIGFGPFIITNKHLFRRNNGTLVVQSLHGVFKVKDTTTLQQHLVDGRDMIIIRMPKDFPPFPQKLKFREPQREERICLVTTNFQTKSMSSMVSDTSCTFPSGDGIFWKHWIQTKDGQCGSPLVSTRDGFIVGIHSASNFTNTNNYFTSVPKNFMELLTNQEAQQWVSGWRLNADSVLWGGHKVFMVKPEEPFQPVKEATQL

Variants of: B1
Assay: raw area under fraction-flipped curve 0-4 h after induction (AUC4h, not background-subtracted), DNA-recorder readout of cleavage of the substrate (dimensionless); higher = more cleavage of the substrate by the protease variant
Details: temperature: 34 °C; time window: 0-4 h after rhamnose induction
Description: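 In vivo DNA recorder in E. coli TOP10(DE3) ΔrhaA at 34 °C. Each TEVp single-site mutant (parent TEVp 0) is paired with a single-site variant of the 7-mer TEVs (canonical ENLYFQ|S). The substrate sits between flexible linkers in a Bxb1-sfGFP-TEVs-SsrA fusion, so cleavage stabilises Bxb1 and speeds flipping of a recombination array, read by NGS. The value is the raw area under the fraction-flipped curve over 0-4 h after rhamnose induction (AUC4h), with ≥20 reads per time point. It is not background-subtracted; inactive controls average about 0.047.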
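Further: Bxb1 expression induced with 0.2% (w/v) L-rhamnose at OD600 near 0.5, cultures sampled hourly, flipped fraction per protease–substrate barcode pair counted by paired-end Illumina sequencing.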

Row | Variant | area with substrate CNLYFQS | area with substrate GNLYFQS | area with substrate HNLYFQS | area with substrate INLYFQS | area with substrate KNLYFQS | area with substrate LNLYFQS | area with substrate MNLYFQS | area with substrate NNLYFQS | area with substrate PNLYFQS | area with substrate SNLYFQS | area with substrate WNLYFQS | area with substrate YNLYFQS | area with substrate TNLYFQS | area with substrate VNLYFQS | area with substrate RNLYFQS | area with substrate FNLYFQS | area with substrate QNLYFQS
1 | MGESLFKGPRDYNPISSSICHLTNESDGHTTSLYGIGFGPFIITNKHLFRRNNGTLVVQSLHGVFKVKDTTTLQQHLVDGRDMIIIRMPKDFPPFPQKLKFREPQREERICLVTTNFQTKSMSSMVSDTSCTFPSGDGIFWKHWIQTKDGQCGSPLVSERDGFIVGIHSASNFTNTNNYFTSVPKNFMELLTNQEAQQWVSGWRLNADSVLWGGHKVFMVKPEEPFQPVKEATQL [T159E] | 0.062 | 0.0768 | 0.0393 | 0.0539 | 0.0761 | 0.0664 | 0.0672 | 0.0857 | 0.0686 | 0.0682 | 0.0661 | 0.0795 |  |  |  |  | 
2 | MGESLFKGPRDYNPISSSICHLTNESDGHTTSLYGIGFGPFIITNKHLFRRNNGTLVVQSLHGVFKVKDTTTLQQHLVDGRDMIIIRMPKDFPPFPQKLKFREPQREERICLVTTNFQTKSMSSMVSDTSCTFPSGDGIFWKHWIQTKDGQCGSPLVHTRDGFIVGIHSASNFTNTNNYFTSVPKNFMELLTNQEAQQWVSGWRLNADSVLWGGHKVFMVKPEEPFQPVKEATQL [S158H] | 0.0425 | 0.0286 | 0.0587 |  | 0.0629 | 0.0448 |  |  | 0.0569 | 0.0436 | 0.0437 | 0.0421 | 0.0503 |  |  |  | 
3 | MGESLFKGPRDYNPISSSICHLTNESDGHTTSLYGIGFGPFIITNKHLFRRNNGTLVVQSLHGVFKVKDTTTLQQHLVDGRDMIIIRMPKDFPPFPQKLKFREPQREERICLVTTNFQTKSMSSMVSDTSCTFPSGDGIFWKHWIQTKQGQCGSPLVSTRDGFIVGIHSASNFTNTNNYFTSVPKNFMELLTNQEAQQWVSGWRLNADSVLWGGHKVFMVKPEEPFQPVKEATQL [D149Q] | 0.0611 |  | 0.0514 | 0.055 | 0.0772 | 0.0558 | 0.0503 | 0.0658 | 0.0673 |  | 0.0553 | 0.0357 | 0.0602 | 0.0621 |  |  | 
4 | MGESLFKGPRDYNPISSSICHLTNESDGHTTSLYGIGFGPFIITNKHLFRRNNGTLVVQSLHGVFKVKDTTTLQQHLVDGRDMIIIRMPKDFPPFPQKLKFREPQREERICLVTTNFQTKSMSSMVSDTSCTFPSGDGIFWKHWIQTKSGQCGSPLVSTRDGFIVGIHSASNFTNTNNYFTSVPKNFMELLTNQEAQQWVSGWRLNADSVLWGGHKVFMVKPEEPFQPVKEATQL [D149S] | 0.0689 | 0.0599 | 0.0695 | 0.062 |  | 0.0572 |  |  |  |  | 0.0622 | 0.0647 | 0.0707 | 0.0677 | 0.0586 |  | 
5 | MGESLFKGPRDYNPISSSICHLTNESDGHTTSLYGIGFGPFIITNKHLFRRNNGTLVVQSLHGVFKVKDTTTLQQHLVDGRDMIIIRMPKDFPPFPQKLKFREPQREERICLVTTNFQTKSMSSMVSDTSCTFPSGDGIFWKHWIQTKDGQCGSMLVSTRDGFIVGIHSASNFTNTNNYFTSVPKNFMELLTNQEAQQWVSGWRLNADSVLWGGHKVFMVKPEEPFQPVKEATQL [P155M] | 0.0529 | 0.0615 | 0.0574 | 0.0571 | 0.0504 | 0.0722 |  | 0.0706 |  |  | 0.0631 | 0.0484 | 0.0694 |  | 0.0396 | 0.0558 | 
6 | MGESLFKGPRDYNPISSSICHLTNESDGHTTSLYGIGFGPFIITNKHLFRRNNGTLVVQSLHGVFKVKDTTTLQQHLVDGRDMIIIRMPKDFPPFPQKLKFREPQREERICLVTTNFQTKSMSSMVSDTSCTFPSGDGIFWKHWIQTKDGQCGSELVSTRDGFIVGIHSASNFTNTNNYFTSVPKNFMELLTNQEAQQWVSGWRLNADSVLWGGHKVFMVKPEEPFQPVKEATQL [P155E] | 0.0524 |  | 0.0653 | 0.0212 |  | 0.0545 |  |  | 0.0592 | 0.0562 | 0.0544 | 0.0515 | 0.049 |  |  | 0.0392 | 0.07
7 | MGESLFKGPRDYNPISSSICHLTNESDGHTTSLYGIGFGPFIITNKHLFRRNNGTLVVQSLHGVFKVKDTTTLQQHLVDGRDMIIIRMPKDFPPFPQKLKFREPQREERICLVTTNFQTKSMSSMVSDTSCTFPSGDGIFWKHWIQTKDGQCGSFLVSTRDGFIVGIHSASNFTNTNNYFTSVPKNFMELLTNQEAQQWVSGWRLNADSVLWGGHKVFMVKPEEPFQPVKEATQL [P155F] | 0.0514 | 0.0612 | 0.055 | 0.0583 | 0.0595 | 0.0756 |  |  | 0.0559 | 0.06 |  | 0.0626 | 0.0511 |  | 0.051 | 0.0583 | 
8 | MGESLFKGPRDYNPISSSICHLTNESDGHTTSLYGIGFGPFIITNKHLFRRNNGTLVVQSLHGVFKVKDTTTLQQHLVDGRDMIIIRMPKDFPPFPQKLKFREPQREERICLVTTNFQTKSMSSMVSDTSCTFPSGDGIFWKHWIQTKDFQCGSPLVSTRDGFIVGIHSASNFTNTNNYFTSVPKNFMELLTNQEAQQWVSGWRLNADSVLWGGHKVFMVKPEEPFQPVKEATQL [G150F] | 0.0507 | 0.0647 | 0.0485 |  | 0.0739 | 0.0539 | 0.0696 |  | 0.0567 | 0.065 | 0.063 | 0.0589 | 0.0683 | 0.0583 |  | 0.0565 | 
9 | MGESLFKGPRDYNPISSSICHLTNESDGHTTSLYGIGFGPFIITNKHLFRRNNGTLVVQSLHGVFKVKDTTTLQQHLVDGRDMIIIRMPKDFPPFPQKLKFREPQREERICLVTTNFQTKSMSSMVSDTSCTFPSGDGIFWKHWIQTKDLQCGSPLVSTRDGFIVGIHSASNFTNTNNYFTSVPKNFMELLTNQEAQQWVSGWRLNADSVLWGGHKVFMVKPEEPFQPVKEATQL [G150L] | 0.0633 | 0.057 | 0.0607 | 0.0703 | 0.0629 | 0.0524 | 0.0617 | 0.0512 | 0.065 | 0.0523 | 0.0636 | 0.0593 | 0.0618 |  | 0.0559 | 0.0615 | 
